Results from article PMC6919601, “Identification of Plasmodium dipeptidyl aminopeptidase allosteric inhibitors by high throughput screening” (PLoS ONE, 2019).
The campaign covered roughly 110,000 compounds. About 230 (0.21%) showed an effect of 50% or more. Some of the results follow.

Biological target: DPAP1 (Plasmodium falciparum, UniProt Q8IIJ9)
Test: primary screen, percent inhibition; read by cleavage of a fluorogenic dipeptide substrate; higher = more effect of the substance
Design: species or system P. falciparum D10 trophozoite lysates; single well
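Note: 30 min substrate incubation versus DMSO and 10 µM JCP410 controls.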

Sequence of DPAP1 (Q8IIJ9 whole entry, looked up): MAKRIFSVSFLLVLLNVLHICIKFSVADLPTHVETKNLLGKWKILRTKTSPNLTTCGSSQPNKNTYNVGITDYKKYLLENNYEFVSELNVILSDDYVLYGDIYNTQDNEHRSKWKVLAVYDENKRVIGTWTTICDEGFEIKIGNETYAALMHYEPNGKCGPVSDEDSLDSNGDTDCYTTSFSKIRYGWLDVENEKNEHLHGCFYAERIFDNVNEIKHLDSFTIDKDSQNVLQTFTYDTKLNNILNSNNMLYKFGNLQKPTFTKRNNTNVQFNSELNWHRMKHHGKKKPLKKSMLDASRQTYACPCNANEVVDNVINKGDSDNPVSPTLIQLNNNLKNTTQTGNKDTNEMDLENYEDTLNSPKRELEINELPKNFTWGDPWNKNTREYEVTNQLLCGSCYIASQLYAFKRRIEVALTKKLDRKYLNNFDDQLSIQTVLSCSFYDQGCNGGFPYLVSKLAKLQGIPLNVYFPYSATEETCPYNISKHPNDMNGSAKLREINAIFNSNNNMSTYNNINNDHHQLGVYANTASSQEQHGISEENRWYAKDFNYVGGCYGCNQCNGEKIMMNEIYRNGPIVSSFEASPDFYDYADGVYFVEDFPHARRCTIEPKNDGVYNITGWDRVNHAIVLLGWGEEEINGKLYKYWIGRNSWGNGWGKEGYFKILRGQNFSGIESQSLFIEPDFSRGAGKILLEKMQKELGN

Compound | % Inhibition @ 10 uM [%]
CC(C)(C)c1ccc(Oc2nc3ccccn3c(=O)c2/C=C(\C#N)C(=O)NCC2CCCO2)cc1 (centres unmarked) | 0.189
C=CC/N=C(\CCCN1C(=O)c2ccccc2C1=O)C1=C(O)CC(C)(C)CC1=O | 2.7
COc1ccc(Cl)cc1NC(=O)c1ccc(Cn2nc(C)c(Br)c2C)o1 | 2.44
N#CCNC(=O)[C@H](Cc1cn(C=O)c2ccccc12)NC(=O)c1ccc(F)cc1 | 1.35
CCN1C(=O)c2ccc(C(=O)NCc3ccc4c(c3)OCO4)cc2C1=O | -1.2
CCc1nnc(/N=C/C2=C(O)OC(C)(C)OC2=O)s1 | -5.08
COc1cc(/C=C2\SC(=N)N(c3nnc(C)s3)C2=O)ccc1OCc1ccccc1F | -7.56
CCN(Cc1ccccc1)C(=O)c1ccc(Br)cc1 | 3.48
CCc1ccc(OCC(=O)Nc2ccccc2C(N)=O)c(Br)c1 | -1.92
CCOc1ccc(S(=O)(=O)N2CCCCC2C)c2ccccc12 (centres unmarked) | 0.392
Cc1cc(/C=c2\sc3nc4ccccc4n3c2=O)c(C)n1-c1ccncc1 | 2.17
C=Cc1ccc(Cn2c(C(=O)O)c(CNCc3ccc(C)o3)c3ccc(C)cc32)cc1 | -3.88
CCN1C(=O)NC(=O)/C(=C\c2cn(CC(=O)O)c3ccccc23)C1=O | 2.09
OCCN(Cc1ccccc1)Cc1ccc(F)cc1F | -6
CCCCN(C)C(=O)c1cc2c(s1)-c1ccccc1S(=O)(=O)C2 | 2.64
CC(C)C(=O)NCCCc1nc2ccccc2n1CCc1ccccc1 | -2.28
CCCN1C/C(=C/c2ccccc2)C(=O)/C(=C/c2ccccc2)C1 | 22.6
CCOc1ccc(CSc2nc(C)cc(COC)c2C#N)cc1OCC | -4.91
CC(=O)N1CCCC1(C(=O)O)c1ccccc1 (centres unmarked) | -2.03
Cc1cc(C)n(CCc2nc3c4ccccc4nc(N4CCC(Cc5ccccc5)CC4)n3n2)n1 | 0.981
Cc1cc(C)nc(/N=C(/NC(=O)Cc2ccccc2)N2CCC(C(N)=O)CC2)n1 | 5.46
CCN(CC)S(=O)(=O)N(CC(=O)NCc1ccccc1Cl)Cc1ccc(F)cc1 | 1.62
COc1ccc(S(=O)(=O)NCc2nc(N)n(S(=O)(=O)c3ccc(OC)cc3)n2)cc1 | 2.84
CSc1ccc(-c2cccs2)nn1 | -0.822
CCCOc1nc2c(c(=O)n(C)c(=O)n2C)n1CCc1ccccc1 | 3.59

Compound | % Inhibition @ 10 uM [%]
O=C(O)c1cc(-c2ccc(Cl)s2)nc2ccccc12 | -2.45
COCCCNC(=O)/C(C#N)=C/c1c(Oc2cc(C)cc(C)c2)nc2ccccn2c1=O | -1.43
Clc1ccc(-c2noc3ncnc(NC4CCN(Cc5ccccc5)CC4)c23)cc1 | -2.19
OCCN(CCO)c1ncnc2c1cnn2-c1ccccc1 | 0.258
Cc1cccc(N2C(=O)CC(N3CCN(c4ccccc4Cl)CC3)C2=O)c1 (centres unmarked) | 3.69
COc1ccc(S(=O)(=O)c2c(O)nc3cc(C(=O)NCc4ccc(C)cc4)ccc3c2O)cc1 | -0.264
Cc1ccc(/C(O)=C/C=N/c2ccc(S(=O)(=O)Nc3cnc4ccccc4n3)cc2)cc1 | 0.658
O=C(CSc1nc(-c2ccc(Cl)cc2)n[nH]1)Nc1cccc(Cl)c1 | -6.7
CC(CN1CCCC(C(N)=O)C1)c1ccccc1 (centres unmarked) | 1.26
O=C(Cc1ccccc1)n1nc(-c2ccccc2)nc1NCc1ccc(F)cc1 | 3.93
N#Cc1ccc(NC(=O)c2cc3nc(C(F)F)cc(C(F)F)n3n2)cc1 | -1.89
CC(=O)NC12CC3CC(CC(O)(C3)C1)C2 | 5.43
CC(C)CC(NC(=O)c1cccc(N)c1)C(=O)NCC#N (centres unmarked) | -0.778
Cc1ccc(C2(c3ccc(C)cc3)CC2C(=O)NCc2ccccc2)cc1 (centres unmarked) | 3.25
Cn1c(=O)c2sccc2n2c(CCCC(=O)NCC3CCN(C4CCCC4)C3)nnc12 (centres unmarked) | 0.297
O=C(NCc1ccccn1)c1ccc2c(c1)OCO2 | -12.1
CCCCC(=O)Nc1cc(OC)c(Cl)cc1OC | -4.67
CC(Cc1cccc(C(F)(F)F)c1)NCc1ccco1 (centres unmarked) | -1.75
COCCCNC(=O)CN1N=C(c2ccccc2)CCC1=O | -1.21
COc1ccc2c(Cl)c(C(=O)N3CCOCC3)sc2c1Cl | 11.6
O=C(NCCCn1ccnc1)c1cc(-c2ccc(Cl)s2)nc2ccccc12 | 5.54
Cc1ccc(CCNS(=O)(=O)c2ccc3[nH]c(-c4ccccc4)nc3c2)cc1 | 5.19
CCc1ccc2ncc(S(=O)(=O)c3ccc(Cl)cc3)c(N3CCOCC3)c2c1 | -5.37
CCC(C)(O)c1nnn(-c2nonc2N)c1C(C)(O)CC (centres unmarked) | 7.5
CCOc1cc(/C=C2/SC(=O)NC2=O)cc(Br)c1O | -8.2
